Measured values published in the CheMixHub viscosity set.

Conditions: 101 kPa

| Structure (SMILES) | viscosity (308.15 K) | viscosity (313.15 K) | viscosity (318.15 K) |
| --- | --- | --- | --- |
| Cc1cc(C)cc(C)c1 | 0.575 ± 0.012 mPa·s [study A] and 0.5614 ± 0.0047 mPa·s [study B] and 0.5734 ± 0.013 mPa·s [study C] and 0.548 ± 0.15 mPa·s [study D] | 0.555 ± 0.012 mPa·s [study A] and 0.545 ± 0.011 mPa·s [study B] and 0.4376 ± 0.13 mPa·s [study C] and 0.555 ± 0.015 mPa·s [study D] | – |
| OCCCCO | 41.6 ± 2 mPa·s [study A] and 44.3 ± 0.9 mPa·s [study B] and 46 ± 0.26 mPa·s [study C] and 45.24 ± 0.29 mPa·s [study D] | – | 30.5 ± 1.5 mPa·s [study A] and 29.4 ± 0.6 mPa·s [study B] and 29.7 ± 0.17 mPa·s [study C] and 30.12 ± 0.2 mPa·s [study D] |

± gives the uncertainty stated by the source. Some entries of the source have several records that differ or are many. This list holds those alone. An entry can have further records. Results that share an entry are repeats across runs, samples, wells, individuals or studies. Records carry a tag for their origin. Letters hold for one entry only.
